Test results as given in paper PMC4336329 (PLoS ONE, 2015).
Hit rate of the full screen: of about 310,000 compounds, about 14,000 (4.5%) showed an effect of 50% or more. Effects have a minus sign here. Some of the results follow.

The compounds below were run against human ether-à-go-go-related gene (hERG) potassium channel (human, UniProt Q12809) (assay: primary screen, population patch clamp on CHO cells stably expressing hERG).
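Also: peak tail current of the secondary pulse compared with the same well before compound.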

human ether-à-go-go-related gene (hERG) potassium channel, sequence (Q12809 whole entry, looked up): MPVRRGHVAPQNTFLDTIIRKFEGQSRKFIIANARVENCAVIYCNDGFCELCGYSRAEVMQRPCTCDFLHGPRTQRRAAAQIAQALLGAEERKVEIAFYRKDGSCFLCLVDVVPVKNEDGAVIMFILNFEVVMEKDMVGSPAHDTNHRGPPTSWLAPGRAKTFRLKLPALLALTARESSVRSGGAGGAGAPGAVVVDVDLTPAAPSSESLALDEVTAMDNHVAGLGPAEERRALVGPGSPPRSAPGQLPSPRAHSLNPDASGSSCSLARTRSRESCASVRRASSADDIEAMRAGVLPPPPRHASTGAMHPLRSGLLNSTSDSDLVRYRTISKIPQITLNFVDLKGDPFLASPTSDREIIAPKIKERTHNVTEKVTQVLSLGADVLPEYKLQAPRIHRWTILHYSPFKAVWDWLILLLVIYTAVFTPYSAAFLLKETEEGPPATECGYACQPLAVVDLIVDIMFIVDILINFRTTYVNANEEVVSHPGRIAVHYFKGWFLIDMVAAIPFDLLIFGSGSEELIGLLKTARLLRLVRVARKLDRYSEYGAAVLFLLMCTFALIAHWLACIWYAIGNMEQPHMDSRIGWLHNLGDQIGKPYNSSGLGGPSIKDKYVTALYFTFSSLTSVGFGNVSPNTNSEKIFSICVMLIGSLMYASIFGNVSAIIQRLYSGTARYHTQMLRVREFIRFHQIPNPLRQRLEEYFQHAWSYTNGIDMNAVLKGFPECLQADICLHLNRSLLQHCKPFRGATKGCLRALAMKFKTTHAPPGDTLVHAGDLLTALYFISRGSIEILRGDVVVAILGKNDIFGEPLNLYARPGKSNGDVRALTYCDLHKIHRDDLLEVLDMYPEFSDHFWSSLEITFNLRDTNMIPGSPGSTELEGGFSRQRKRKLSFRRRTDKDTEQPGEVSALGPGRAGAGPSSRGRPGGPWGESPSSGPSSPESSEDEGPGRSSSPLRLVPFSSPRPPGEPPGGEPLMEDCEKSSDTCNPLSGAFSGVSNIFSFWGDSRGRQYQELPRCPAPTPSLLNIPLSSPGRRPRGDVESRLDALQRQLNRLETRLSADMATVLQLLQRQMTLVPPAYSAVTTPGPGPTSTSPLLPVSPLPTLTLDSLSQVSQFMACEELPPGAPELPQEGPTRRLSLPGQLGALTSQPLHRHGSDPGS

Row | Structure (SMILES) | hERG current change (%, negative = inhibition) at 10uM
1 | O=C(COC(=O)C1(c2ccccc2F)CCCC1)N1CCc2ccccc21 | 3.52%
2 | CCc1ccc(N2C(=O)CN(Cc3sccc3C)C2=S)cc1 | -0.759%
3 | COc1ccc(NC(=O)CSc2[nH]c(=O)cc(C)c2C#N)cc1OC | 8.53%
4 | Cc1cccc(C)c1OCC(=O)OCC(=O)Nc1ccc(Cl)cn1 | 6.45%
5 | c1ccc(-c2csc3ncn4cnnc4c23)cc1 | -8.49%
6 | CSc1ccc(/C=C/C(=O)N2CCCN(C)CC2)cc1.Cl | -26.6%
7 | CC1CN(c2oc(-c3ccccc3Cl)nc2C#N)CC(C)O1 (stereo not drawn) | 2.37%
8 | COc1ccc(C(C)=O)cc1CSc1nnc(Nc2ccc(C)cc2)s1 | 15%
9 | CC(NC(=S)Nc1ccccc1)C(c1cccs1)N1CCOCC1 (stereo not drawn) | -4.86%
10 | CCCCn1c(SCC(=O)N(CC)C2CCS(=O)(=O)C2)nc2cc(S(N)(=O)=O)ccc21 (stereo not drawn) | -5.49%
11 | O=C(CSc1nnc(CNC(=O)c2ccccc2)o1)NCc1ccc2c(c1)OCO2 | 1.73%
12 | N#C/C(=N\Nc1cc(Cl)cc(Cl)c1)c1nnc2n1CCCCC2 | -16.2%
13 | Cl.NCCCC(=O)N1c2ccccc2Sc2ccc(Cl)cc21 | -1.86%
14 | CCN1CCN(C(CNS(=O)(=O)c2ccc(C)cc2)c2cccnc2)CC1 (stereo not drawn) | -35.9%
15 | C[C@H](CCC(=O)O)[C@H]1CC[C@H]2[C@@H]3C(=O)C[C@@H]4CC(=O)CC[C@]4(C)[C@H]3CC(=O)[C@]12C | 7.92%
16 | Cc1cc(NC(=O)c2ccccc2)n(-c2ccccc2)n1 | 30.8%
17 | Cc1ccc(CCNC(=O)C2CCN(S(=O)(=O)c3ccc4c(c3)CCC(=O)N4)CC2)cc1 | 3.09%
18 | Cn1cc(CN2CCCC(C(=O)c3nccn3C)C2)c(-c2cccc(Cl)c2)n1 (stereo not drawn) | -31.1%
19 | S=c1[nH]nc(-c2ccc(Br)cc2)n1Cc1ccccc1 | 9.48%
20 | O=C1CCC([N+](=O)[O-])C(c2ccc(Cl)cc2Cl)N1 (stereo not drawn) | 2.4%
21 | COc1cc(C)c(S(=O)(=O)n2ccc(C)n2)cc1C | 4.35%
22 | COc1ccccc1N1CCN(Cc2ccc(C(=O)O)cc2)CC1 | 14.4%

Row | Structure (SMILES) | hERG current change (%, negative = inhibition) at 10uM
23 | O=S1(=O)c2cccc3cccc(c23)N1Cc1nnc(-c2ccccc2Br)o1 | -9.83%
24 | COCC(C)NS(=O)(=O)c1ccc(C(=O)NCCCn2ccc3ccccc32)cc1 (stereo not drawn) | 27.3%
25 | Cc1cccc(NC(=O)CC2CCC2)c1 | 3.28%
26 | CC1CCCN(C(=O)c2ccc(COc3ccccc3Br)cc2)C1 (stereo not drawn) | 3.98%
27 | NC(=O)C1CCN(CC(=O)c2c[nH]c3ccc(F)cc23)CC1 | -3.34%
28 | CC(C)CCNCC(=O)NC(c1ccccc1)c1ccccc1.Cl | -21.9%
29 | CN1C(=O)C(c2ccccc2[N+](=O)[O-])C(=O)c2ccccc21 (stereo not drawn) | 4.68%
30 | C(=C\c1ccccc1)/CN1CCN(Cc2ccc3c(c2)OCO3)CC1 | -43.9%
31 | CC1(C)Cc2ccccc2-c2nnnn21 | -0.0387%
32 | Cc1ccc(CSCC(N)C(=O)O)cc1 (stereo not drawn) | 12.1%
33 | CC(C)NC(=O)C(c1ccc(F)cc1)N(Cc1ccco1)C(=O)CCC(=O)Nc1ccccn1 (stereo not drawn) | 0.583%
34 | CCn1c(C(=O)O)c(CC(=O)N(C)c2ccc(OC)cc2OC)c2ccccc21 | 16%
35 | O=C(CNC1CCCCC1)Nc1cccc(C(F)(F)F)c1 | 7.53%
36 | Cc1ccc(-c2cc(C(=O)OCC(=O)N(C)c3c(N)n(Cc4ccccc4)c(=O)[nH]c3=O)c3ccccc3n2)o1 | -4.68%
37 | CC(C)c1ccc(NC(=O)C2CCCN(S(=O)(=O)c3cccnc3)C2)cc1 (stereo not drawn) | 20.6%
38 | CC(C)C[C@H](NC(=O)N1CC(=O)Nc2ccccc21)C(=O)N[C@H](Cc1c[nH]c2ccccc12)C(=O)O | 12%
39 | C=CCn1cnc2sc(C(=O)Nc3ccccc3OC)c(C)c2c1=O | 6.42%
40 | O=C(COC(=O)c1ccccc1)Nc1cc(Cl)ccc1Oc1ccccc1 | 2.05%
41 | CC(NS(=O)(=O)c1ccc(Br)cc1)C(=O)NCC1CCCO1 (stereo not drawn) | 18.9%
42 | COc1ccc(-c2nnn(CC(=O)c3ccc4c(c3)OCCO4)n2)cc1OC | 9.3%
43 | O=C1CSC(c2ccccc2)N1c1cccnc1 (stereo not drawn) | 4.34%
44 | CC(C)(C)C(=O)Nc1cccc(C(=O)c2cccc(NC(=O)C(C)(C)C)c2)c1 | -7.46%

Row | Structure (SMILES) | hERG current change (%, negative = inhibition) at 10uM
45 | O=C(CSc1nc2ccccc2s1)NCCCN1CCOCC1 | -0.982%
46 | CCC(C)(C)C1CCc2[nH]nc(C(=O)NCC3CC3)c2C1 (stereo not drawn) | -6.67%
47 | O=C(Nc1ccc(Cl)cc1)c1cc(S(=O)(=O)Nc2ccccn2)ccc1Cl | -2.04%
48 | CC(C)(C)N1CC2([N+](=O)[O-])CN(C(C)(C)C)CC([N+](=O)[O-])(C1)C2 | 7.44%
49 | CCCCn1c(SCC(=O)N2c3ccccc3Sc3ccccc32)nc2c1c(=O)n(C)c(=O)n2C | -23.5%
50 | COc1ccc(S(=O)(=O)Nc2ccc(C)cn2)cc1 | -5.21%
51 | Cc1ccccc1OCCn1c(=O)sc2ccccc21 | 6.79%
52 | CCOC(=O)[C@H]1[C@H]2COc3ccc(C)cc3[C@@H]2N2C(=O)CN(Cc3ccccc3)C(=O)[C@@]12C | -20.8%
53 | CCS(=O)(=O)c1ccc2c(c1)N(S(=O)(=O)c1ccc(OC)cc1)CC(C(=O)O)O2 (stereo not drawn) | 17.7%
54 | O=S(=O)(NCCN1CCCC1)c1ccc(Br)cc1 | -8.08%
55 | C=C(C)CSC1=C(C#N)C(c2ccccc2)CC(=O)N1 (stereo not drawn) | -5.21%
56 | O=C(CN1CCN(CC(=O)Nc2ccccc2Cl)CC1)Nc1ccc2c(c1)OCCO2 | -68.7%
57 | COc1ccccc1NS(=O)(=O)c1ccc(C)c(NC(=O)NC2CCCCC2)c1 | -2.19%
58 | Cc1ccc(C(=O)NCC(=O)OCc2nnc(-c3ccc([N+](=O)[O-])cc3)o2)s1 | -67.3%
59 | CCCCN(C)C(=O)C1CCC(CNS(=O)(=O)c2ccc3c(c2)CC(C)N3C(C)=O)CC1 (stereo not drawn) | 13.1%
60 | Cc1nn(Cc2ccccc2)c(Cl)c1/C=N/NC(=O)CNc1cccc(C(F)(F)F)c1 | 6.67%
61 | O=C(NNC(=S)NC(=O)c1ccccc1)c1ccc([N+](=O)[O-])cc1 | 6.61%
62 | CCN(CC)C(=O)c1cc(Cl)ccn1 | 19.5%
63 | COC(=O)C1=C(c2ccc(S(C)(=O)=O)cc2)C[C@@H]2CC[C@H]1N2C(=O)NCCS(C)=O (stereo partly drawn) | 14.4%
64 | Cn1c(=O)c2c(nc(N3CCCCC3)n2CCSc2nc3ccccc3s2)n(C)c1=O | 0.621%
65 | O=S(=O)(NCC(c1ccco1)N1CCN(c2ccccc2F)CC1)c1ccc(F)cc1 (stereo not drawn) | -11.2%
66 | Cc1ccc(C(=O)N2CCN(S(=O)(=O)c3ccc(Br)cc3)CC2)o1 | -9.06%

Row | Structure (SMILES) | hERG current change (%, negative = inhibition) at 10uM
67 | C=CCOc1ccc(/C=C2/C(=O)ON=C2C)cc1OCC | 17.5%
68 | Clc1ccc(/C=N/Nc2nnc(Cl)c3ccccc23)cc1 | 1.01%
69 | COc1ccc(N2CCN(c3oc(COc4ccccc4)nc3C#N)CC2)cc1 | -26.6%
70 | CSc1nnc(-c2ccc(F)cc2)o1 | 17%
71 | O=S(=O)(Nc1ccc(N2CCCCC2)cc1)c1ccc(F)c(F)c1 | -7.75%
72 | COc1cc(-n2c(C)nc3cccnc32)c(Cl)cc1C(=O)O | 11.4%
73 | O=C(Nc1cccc(S(=O)(=O)N2CCCCCC2)c1)c1cc(=O)c2ccccc2o1 | -14.6%
74 | Cc1cccc2cc(CN(Cc3nnnn3C3CCCCC3)C3CCCC3)c3nnnn3c12 | 6.38%
75 | CCC1CCCCN1c1nc2c(C=O)c(C)nn2c2ccccc12 (stereo not drawn) | -12%
76 | O=C(O)CCCCCN=Cc1c(O)c2ccccc2oc1=O | 17.9%
77 | CCCCN(CC)CCNC(=O)c1cc2c(C)nc3ccccc3c2o1 | -53.5%
78 | CC1=NN(c2ccc(Cl)cc2)C(=O)C1C(c1ccccc1O)c1c(C)[nH]n(-c2ccc(Cl)cc2)c1=O (stereo not drawn) | 5.69%
79 | COc1ccccc1-c1nc(-c2ccccc2)[nH]c(=O)c1C#N | 10.1%
80 | CCCCC1(C)NC(=O)N(CC(=O)Nc2cc(S(=O)(=O)N3CCOCC3)ccc2Cl)C1=O (stereo not drawn) | -25.4%
81 | COc1ccc(C(=O)Nc2ccc(Cl)cn2)cc1S(=O)(=O)N1CCCC1 | -48%
82 | Brc1cc(Br)c2nc(-c3cccs3)ccc2c1 | 12.8%
83 | Cc1cc(C(=O)CCC(=O)Nc2ncccc2C)c(C)s1 | -8.62%
84 | Cc1ccc(C2c3[nH]c4ccccc4c3C[C@H]3C(=O)N(c4ccccc4C(=O)NCCCN4CCOCC4)C(=O)N23)cc1 (stereo partly drawn) | -54.6%
85 | Nc1nc(-c2cc(Cl)cc(Cl)c2OC(F)F)cs1 | 5%
86 | CS(=O)(=O)NCCNc1ncc(C(F)(F)F)cc1Cl | 25.8%
87 | CCCN1CCN(C(=O)c2cc(COc3ccc4ncccc4c3)on2)CC1 | -9.2%
